# According to publication PMC10726135:
# The other results are listed elsewhere or left out. At the low end of the ranking the order means little. Measured with an extract: partners may take part in the binding.
# Molecular target: T1, HNF4alpha2 (COS-7 nuclear extract) (UniProt P41235)
# T1 sequence: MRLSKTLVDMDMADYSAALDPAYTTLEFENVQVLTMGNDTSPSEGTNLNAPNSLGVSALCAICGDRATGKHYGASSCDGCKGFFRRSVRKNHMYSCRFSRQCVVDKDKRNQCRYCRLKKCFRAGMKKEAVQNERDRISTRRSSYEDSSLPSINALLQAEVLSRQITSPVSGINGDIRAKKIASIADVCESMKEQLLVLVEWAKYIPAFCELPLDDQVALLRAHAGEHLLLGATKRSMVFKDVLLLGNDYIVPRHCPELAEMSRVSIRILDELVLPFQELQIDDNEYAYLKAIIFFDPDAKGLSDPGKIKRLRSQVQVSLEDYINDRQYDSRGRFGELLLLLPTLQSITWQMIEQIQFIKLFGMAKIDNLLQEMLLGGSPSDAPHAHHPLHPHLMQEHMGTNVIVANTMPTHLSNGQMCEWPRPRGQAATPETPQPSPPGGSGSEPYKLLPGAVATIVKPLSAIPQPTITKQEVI
# Experiment: protein-binding microarray
# Conditions: COS-7 nuclear extract on double-stranded Agilent 4x180k PBM; binding buffer, salt, pH and temperature not given; high values mean tight binding; double strand, one strand shown; sequences stand for … in …GCCTAGGGAGATTAGAGTATCGGTCGA
row,Sequence,binding signal (log2 normalized intensity)
1,CTGCCTGTGCTGTGGCTGCCAAGACACAGA,-1.14
2,GCGAGTCCAGCCAGGTTGCATCAGCTGGGC,-1.11
3,CAGCAGTAACCCCCCAGGAGCGAGTCAAGG,2.92
4,CTCTAGACTCCAGCTAAAGCCTGCTCGTTG,-1.14
5,ACACCTGCCTTTGATCAGGGACCTTTGTTC,4.59
6,GGCAGGAGTGGGAGGCTGGGGCCTCCTGGC,-1.12
7,CCGGAGCGGCGGACCCGGCGGACCGGGGGG,-1.1
8,GGCCGTAAAGATAAGAACGCTAGACACTGG,-1.04
9,CTAGCCTCGAGATAACCCACCTCCGGCCGG,-1.16
10,GAGTCATAAAGGGCAGGAACATCAGACACA,-0.999
11,TAGACTTTGGACCTGGCCTGCGGGGTCAGG,5.39
12,AAATGGAGCAGCTCTGTATTGAGATAAGCA,-1.04
13,TACTGCAACCTGTTTTACCAGGAAGGGCTT,-1.02
14,AATTCCAGCTTCCCCACTTATTACCGGTGT,1.24
15,TGGACTCTGCAAGGAAGGTGGGGGCCGCCC,0.449
16,ACAGCAACTAGCAACTTGGACCTTGATAGG,3.87
17,AGCAGATGGCCAGCCTTTGGACTTTGAACT,10.7
18,CATTGACTTTGCCTTTTGGCTAAAGTCCAA,4.16
19,GTCCAAAGGTCAGCAAGCCTGGAGTTCTGA,4.22
20,AGGGAGGCTTTTGCAGTCACTCTCTAGAAT,-0.882
21,ATTGAATGTGTTACACCTGTGTGTACTGGG,1.84
22,CTCCAAAGGCTGTTTGCACCGTGTGCTTTG,0.866
23,GGCTAGGGCAAAGATCAAACATACAGTAAA,1.77
24,ATATAAGGTCCAACTGACATCTGGAAATGT,0.608
25,TCTGGGGCCCTCTTCTGCATTCTTCTTCTA,-1.1

row,Sequence,binding signal (log2 normalized intensity)
1,GATCTCCTGCACCTGAACTTTGCTCTGTGA,4.56
2,GTCCCAGTAGATAACTTCAAGGAGCTCGGC,-0.627
3,CTTTGCCCTTTGTTTACATAGCTCCTTCAT,1.69
4,ACATTATCTAACAAGAAGTCTGAAGGCAGG,-0.511
5,GGTTAGCAAGGGCCCCCACTAGAGAGACCG,0.957
6,GAAAGCCAGCAGGGGCTGCTGGGAGTTGTA,1.12
7,TGCCCAGCTTGAATCACTCACTGACCTCTT,3.98
8,ATCCTTTACCTCCACCTCCAAGGTCCCCAA,3.52
9,ACTCCTCGTGGCCCCTGGGTCGTTGGTGCT,1.22
10,CCGGCATGATCTTGCTCTCTTGTGCTCATG,0.804
11,CCTCTGCATTTGCTCCCTGACTTGGTTTAC,1.67
12,ATTTTCTAGGAGAATCACTAGGACATATAT,-1.11
13,GCAGCTTGTACCCTTCTTTCCACCCTGTTG,1.78
14,AACACATACCTTAAATAAGAGACTCAGGCC,-0.691
15,TGTGCACAGTCCACAGAAACGCAGTCCTGA,-1.19
16,TCTTGTGGTAATCTCTTTTGTGTTAGAGGG,1.39
17,CCTCTGGACAAGGGAAGCGTCAATGCCCCA,2.01
18,AGCATGGCCCTTTGCAGCCCGAGCTGCTGG,-1.13
19,AGAGAGAGGGAGACAACCTTTGGTCACTTG,3.67
20,GAGAGCATTCTGCTGCTCTTTAATCCTAAT,-1.16
21,TGGAGATAACACAACCCCTACTGTACCCTA,1.49
22,TCACCTGGCAAGGCAGCCTCAGCCACACGC,-1.18
23,AGCTGTGCCCCAGTCCTTCAGTCCTTCCCC,2.79
24,CTCTCTGTGTCACATACACCTGCGTGTACT,1.55
25,AGAACTAGCCAGACCTGTTCCTCTGCCCCT,2.4

row,Sequence,binding signal (log2 normalized intensity)
1,GCATGGAATGCAGGAGATCCAGTAGGGCGT,-1.16
2,GCCCTCCCAGCCTATTAACCCCAAATTCCT,3.91
3,ATGACCTTTGACTGAGATGGGAGCAGTGCT,2.23
4,GACGGCGGATCCTCCCAGCCTGGAGGAGGG,-0.864
5,TCAGTAAGGAGAGGGGGCGGGGAGAGGGAA,-1.14
6,TGCCATTCTTCCAGTTGTGTGCACAAGAGG,1.7
7,AAAGCACTTTGCCCCCAAGAAAAGGTTCCT,3.13
8,AGATCCATTGCATGTGCATTTCACAATAGG,1.22
9,ACTGTTTGGCCTATGGGAAAACAGGCTCAG,-1.14
10,TTTAACTCTTTATCTTTCTCCTACAGCCTG,-0.791
11,GACTACAAATTCCTCAATCCAGTCATCTCA,-1.14
12,ACCTTTGACCCTTTATAATCCCCTATGCTC,4.17
13,ACTTTTGGCCATCGCACGAGCAAGTTTATT,0.189
14,ACCCTGAATGTGTGCTGGCCTGGTTCCTTC,0.887
15,TTTGAAGCAAAGCCTTTGAGCAGATGGAAG,0.0298
16,AACATCTGTATTTAACTTTTGGGATCAGCA,1.17
17,CCTGTTCTTTTGAGCTGTGGTTAAGACTCA,0.608
18,TCCTAGGGAAGAAACATTCTGATCAAATAG,0.81
19,CTGCGTAACTTACAGTGCACTTTGACCGCT,7.14
20,CTCTGCAGAGGCTTCCTCTTTGGTGCAAAG,-0.855
21,ATATTTGTGATTTGAAATTTGTCCTGGTCA,2
22,TATTGTGAGATTACGTAAGTGAAAGTACAC,1.65
23,CAAATGATGTCTCTCATTGGAATGAGCCTC,1.19
24,TGGTTTTTGTTGTTGAGCAAATCATAGTGT,2.25
25,TGGCAGTGAAGGAACTATTGGATTCCCCAA,0.825

row,Sequence,binding signal (log2 normalized intensity)
1,TGGGCAGTGCAGTATGCGCTCTGGGAAACA,-0.737
2,AACCCATGGGAAGCTTCACAAAGGGCTGAG,-1.18
3,GGAGCAGCCTAGTAAAAGGTAGATACTATA,-1.18
4,GGAAGAACTGGTTCTGTGGAATTTGTGCTT,1.93
5,GGCGCAATCTCAGCTCAATCTCTGTCGCCC,-1.12
6,GCGCCACTGCGTCCAGCCACAATTAATGTA,-1.06
7,TCAAATGCACCAAAAATATCTTTGTCTCAG,-0.76
8,TCTTTAAGACAAGTGTCCCTCAAACTGAAG,1.28
9,GCTGAGTCCCTGCTTGATAAGACTGACAAC,-1.05
10,GCCGCCACCCGGTTGGCGCCAATACCTGCC,-1.12
11,AAACATGCGCATGTTCCCACGAAACCCTAA,1.67
12,TGCAAACTCCAGCATGAGGGGGTGGACTGA,0.593
13,TGGTAGCATGGCTCAGTCCAAGTCCAAAGG,4.18
14,CTTTGACCATCCACGGATGCATGATTGCTC,-1.11
15,GCACACCGGACTGCGTTTTTTCCGAACGCC,-1.07
16,AGAGGGGAAGGATGAATTTAAAAAATTCTA,-1.1
17,AAGCTCATGAAGCTTCCCCTTTAACCAATA,1.25
18,GGGAGTTGTAGTTTTTTGGGCCCCTAGACT,0.531
19,TTAATGTCAAACTGATCAGAAGTGGTTACA,0.594
20,ACTTTGGTTCACCGCTCACTGCTCCAGCCA,-1.09
21,CACATTGCAGTATGCCCCCCCACCCCACAC,6.96
22,CTAGATTCCAGGAAGAAAGATTGAAGTCTG,0.476
23,ACTTTGACCTTGTTTTCAATGACTACCTGT,1.84
24,ATTACCTGTTCTAAGCACCTCTGCTTATCT,-1.11
25,TGCACATGAGTTCCCGGCAAGCCGACTTAC,-1.06

row,Sequence,binding signal (log2 normalized intensity)
1,TTCTAGATGACCCCTCTCTACTGGTAAGCA,2.56
2,GCATGCACTGGGGTTTAAAGTTTATAGGCT,0.415
3,GGTTTTTGTCAAAGATAGTTGTAGTTACAG,1.78
4,GTGGGGACCTGGACTCCCAAGATGGATTGG,0.682
5,TGTGGGTGAGGCTGTGATGTTTGCCCATGA,0.829
6,AGGCAAGGAATTTGGAATTCCCTGCAAGGA,-1.18
7,ATAGAGGAGTCAAGCAAACACACTTGCTCT,-1.09
8,GTACAAACACATACCTTAAATAAGAGACTC,-1.16
9,CGTCTAAACAAACTCCCAGTCTGTTATCAG,-1.06
10,AAAGTTCATCTGGGCTTTAGGTTTGGTGTT,1.97
11,TCAAGGGTCATTTGTTTTTACAGACAGGCA,1.81
12,GCCTGGCCAAGTTGAGGAGTTTGTACTTTA,3.24
13,GTAACAAAGGAAAGAGCTAACATATACCAT,-1.39
14,TCTACCTTTGGCCTGGGGATTTACTAAAGT,0.556
15,CACACTGTTTGCGCAAACTATCTAAACAGA,-0.673
16,AGTGAGCCAAGGTACCCTGGCTTGTAATTC,-1.12
17,CCCCCTCCTCACCCCACTTTGGTTCACCGC,4.22
18,CCCTATTTCCCTCTGTGCCCGAGCTGTCTT,1.42
19,TCCTGAAGCCCTTCTTCTGGAGCCTCAGTA,-1.15
20,CCTTTCGGTGGGACTAAATTCTGCGGCGGA,-0.759
21,AAGCTGCTGCCAAGCGTCAGTCATACAGAG,-1.14
22,GTCAGAACTGTGGACTCGCTGCCTTTTATC,0.745
23,CCTACGCTACGCACCAGGCATACTCCTCCT,-1.08
24,AGATAAGACAAGCTCTGTTTGTTTTGTTAC,1.3
25,GAGTGCCCTTGCCGAGAGCGGCTCGTTGGT,-1.11

row,Sequence,binding signal (log2 normalized intensity)
1,TTTGTATGGCAGGGGTTAACCTCTATTGAC,2.16
2,AATCTCCAACAAGGCAGGAGATTCCACATT,-1.09
3,CCTGAGAGGCCAGTTTGACCTTTGCATTCT,7.56
4,TTGCCCACATTCACACAATCAGTGTGTTGA,-0.0239
5,CCAAAGTCCATGCTATTAAGCACTAGAAAG,-1.01
6,ATTCTGCATTTTTCTTTCCTGTAAATAATT,1.26
7,TCACCAGCTAAGCTGTTACTCATTCCCAGG,-0.888
8,TAAGCAGAGGATGGGAATTAGGGAGTAGGG,-1.12
9,AGGCAGAGAGGCTGCTCAGTTTAAGTCAAA,-1.13
10,CAGGGGAATGGAGACACACCTGCGGTGACT,-1.13
11,GGCAATTGTGTTTGTCTTAGGGGGTCTGGT,1.53
12,AACTTTTCCATGTCCAAAGGTCTTCATGAG,3.46
13,ATCTCACAGATTAAGTCACGTGGAGATAAC,1.39
14,CAACTGGTATGTTAGATTAGTGTGCAGCTT,0.891
15,ATTCAGCATTGCTTGGGAGCAGTCCTTGGG,-0.333
16,AGAGGCACCAAGGCCGGAAAAGATTAGATT,-1.08
17,GAGAGAGAGAATAGCTCAGGTCCAAGGAAC,-1.12
18,GGAGACCCATGGCAGAGGCTGTACTCCTCA,-1.16
19,GCTGGAAAGGCCACCACAAACCCTTCATCC,-1.24
20,GTGGGGGTGGAGGCAGCAGCTCCAATTAGG,-1.06
